Results published in PubChem BioAssay AID1347120 (National Center for Advancing Translational Sciences (NCATS), 2019).
Out of some 390,000 compounds screened, about 930 (0.24%) were called active. The inconclusive results got no clear call from the source; some entries with a clear call stand among them for comparison. The call rests on the fitted dose curve; in most records, active means well fitted activation curve with a large enough effect; inconclusive means small, poorly fitted or top-dose-only effect; inactive means no such curve, though single readings can be large or run the other way. Where the call is inconclusive, the potency comes from a doubtful curve fit.

assay: qHTS for Suppressors of FUS Proteinopathy: Primary screen using FUS-linked yeast assay; further: nearly all actives have a fitted effect of over 55% in size;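 on growth rescue (activation): plate controls were DMSO vehicle for no effect and reference control for full effect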; conditions: S. cerevisiae FUS-expressing, OD600, 24 h; Potency: growth rescue; growth rescue (activation): at 76.6 µM (top of the series)
How it was run: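 Quantitative HTS measuring growth restoration of FUS-toxic yeast. Galactose-induced cells (OD 0.005) were exposed 24hr at 30C to compounds at several concentrations, then absorbance at 600 nm was recorded.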
Potency means the concentration at half of the fitted maximal effect; tags describe the fitted curve by direction and shape.

SMILES | Potency | growth rescue (activation)
CN(C)c1ncnc2c1ncn2[C@H]1CN(Cc2ccc(-c3ccccc3)cc2)C[C@@H](CO)O1 | inconclusive: 25.1 µM [activator, partial curve] | 
CCn1c(SCC(=O)Nc2nnc(C)s2)nnc1-c1ccco1 |  | inactive: 22.7%
CSc1nnc(NC(=O)c2nc(S(=O)(=O)Cc3ccccc3F)ncc2Cl)s1 |  | inactive: 25.8%
CCOC(=O)Cn1nnnc1CN(CCc1ccccc1)Cc1cc2cc(CC)ccc2[nH]c1=O | inconclusive: 17.8 µM [activator, partial curve, poor fit] | 
O=C(O)CCCN1C(=O)/C(=C\C(Cl)=C\c2ccccc2)SC1=S | inconclusive: 50.1 µM [activator, single point] | 
Cc1ccc(-n2cc(-c3ccccc3)nc2S(=O)(=O)CC(=O)Nc2ccc(F)cc2)cc1 | inconclusive: 35.5 µM [activator, single point] | 
CCCCSCCCNC(=O)c1cn(C)c2ccc(S(=O)(=O)N3CCCCC3)cc2c1=O |  | inactive: 2.57%
COC(=O)c1ccc(-n2c(CCC(=O)O)ccc2-c2ccc(C)cc2)cc1 | inactive | 
CC1(C)CC(=O)C2=C(C1)OC(N)=C(C#N)C2C#Cc1ccccc1 (centres undefined) | inconclusive: 3.55 µM [activator, full curve] | 
CC1CCc2c(sc(/N=C/c3cccnc3)c2C(N)=O)C1 (centres undefined) | inconclusive: 7.08 µM [activator, partial curve] | 
COc1cc(Nc2ncc3c(n2)CCN(C(=O)Nc2ccc(C(C)C)cc2)C3)cc(OC)c1OC | inconclusive: 28.2 µM [activator, single point] | 
CC(C)COC(=O)NCCCOC(=O)Nc1ccccc1 |  | inactive: 7.86%
CC1CCc2c(sc3nc(CN4CCOCC4)nc(NS(=O)(=O)c4cccc([N+](=O)[O-])c4)c23)C1 (centres undefined) | inconclusive: 28.2 µM [activator, single point] | 
CC(C)C[C@H]1CNC(=S)N1C[C@H]1CCCN1C[C@H](CC(C)C)N1C[C@H](Cc2ccc(O)cc2)N(CC2CCCCCC2)C1=S | inconclusive: 25.1 µM [activator, partial curve, poor fit] | 
CCOC(=O)C(O)C1CCc2c([nH]c3ccc(C)cc23)C1=O (centres undefined) | inconclusive: 5.01 µM [activator, partial curve, poor fit] | 
Cc1cc(Nc2ccc(C(C)C)cc2)n2ncnc2n1 |  | inactive: -3.23%
Cc1ccc(S(=O)(=O)N(CC(=O)N2CCCCC2)c2cccc(C)c2)cc1 | inconclusive: 3.55 µM [activator, full curve] | 
Cc1ccc(O)c(NC(=O)c2ccc(Br)c(S(=O)(=O)N3CCCCC3)c2)c1 |  | inactive: 14.9%
COc1ccc(CCNC(=O)CCCCn2c(=O)c3ccccc3n(Cc3ccccc3C)c2=O)cc1OC | inconclusive: 31.6 µM [activator, single point] | 
Nc1c(Cl)cc(C2=NCCn3nc4cc(C(F)(F)F)ccc4c32)cc1Cl | inconclusive: 35.5 µM [activator, single point] | 
COC(=O)[C@]12C[C@H](CC(=O)NCc3ccc(OC)c(OC)c3)C(=O)N(Cc3cccc4ccccc34)C1=C[C@H](C(C)C)O[C@@H]2C1CC1 | inconclusive: 28.2 µM [activator, partial curve, poor fit] | 
CC(=O)Nc1ccc(NC(=O)c2ccc(-n3c(C)ccc3C)cc2)cc1 | inconclusive: 50.1 µM [activator, single point] | 

SMILES | Potency | growth rescue (activation)
O=C(NCCc1ccccc1)c1ccc(Cn2c(SCc3cccc(F)c3)nc3cccnc32)cc1 | inconclusive: 39.8 µM [activator, single point] | 
C[C@H](CO)N1C[C@H](C)[C@H](CN(C)C(=O)Cc2ccncc2)Oc2ncc(Br)cc2C1=O |  | inactive: -10.4%
COC(=O)C1=C(C)Nc2nc(-c3ccccc3)nn2C1c1ccc(C)o1 (centres undefined) |  | inactive: -7.07%
COc1cccc(NC(=S)N(Cc2ccc(C(=O)O)cc2)Cc2ccc(OC)c(OC)c2)c1 | inconclusive: 44.7 µM [activator, partial curve, poor fit] | 
CCCCCC(=O)N1CCCC(c2nc(-c3ccc(OC)cc3)no2)C1 (centres undefined) | inconclusive: 15.8 µM [activator, partial curve, poor fit] | 
CCOc1ccc(C(=O)Nc2cccc(-c3ccc(N4CCOCC4)nn3)c2)cc1OCC |  | inactive: 25.1%
CCOc1ccc(-n2c(SCC(=O)Nc3ccccc3-c3ccccc3)nnc2-c2ccccc2)cc1 | inconclusive: 14.1 µM [activator, partial curve] | 
COc1ccc(CCNC(=O)c2cc3c(C)nn(-c4ccccc4)c3s2)cc1OC | inconclusive: 20 µM [activator, partial curve, poor fit] | 
Cc1cc(C(=O)COC(=O)c2ccccc2Br)c(C)n1CC1CCCO1 (centres undefined) | inconclusive: 3.55 µM [activator, full curve] | 
CCCn1c2ccccc2c2cnn(CC(=O)N(C)c3ccccc3CC)c(=O)c21 | inconclusive: 39.8 µM [activator, single point] | 
Cc1csc(NC(=O)c2ccc3ccccc3n2)n1 |  | inactive: 20.3%
CCc1cccc(C)c1NC(=O)c1cc(S(=O)(=O)NCc2ccccc2Cl)ccc1F |  | inactive: 5.08%
Cn1c(N)c(C(=O)COC(=O)c2cccc(S(=O)(=O)NCc3ccccc3)c2)c(=O)n(C)c1=O | inconclusive: 35.5 µM [activator, partial curve, poor fit] | 
COc1cc2c(cc1NC(=O)CSc1nnc(-c3cccnc3)n1-c1ccc(Br)cc1)oc1ccccc12 | inconclusive: 8.91 µM [activator, partial curve] | 
COc1cc(CC(=O)OCC(=O)Nc2ccc(N3CCOCC3)cc2)cc(OC)c1OC | inconclusive: 8.91 µM [activator, partial curve, poor fit] | 
O=C(CCC1N=C2c3ccccc3N=C(SCc3ccc(Cl)cc3)N2C1=O)NCCc1ccccc1 (centres undefined) | active: 31.6 µM | 
COCn1c(-c2ccc(OC)c(OC)c2)nc2ccccc21 |  | inactive: -3.37%
CC(C)(C)OC(=O)NCc1ccc(CNC(=O)c2nc[nH]c2C(=O)N2CCN(C(=O)OC(C)(C)C)CC2)cc1 | inconclusive: 12.6 µM [activator, partial curve] | 
CN(C)S(=O)(=O)c1cccc(C(=O)NCc2ccco2)c1 |  | inactive: 11.5%
COc1ccc(-n2c(=S)[nH]c3cc(C(=O)Nc4cc(OC)c(OC)c(OC)c4)ccc3c2=O)c(OC)c1 | inconclusive: 39.8 µM [activator, single point] | 
O=C(C1=C(O)C(=O)N(CC2CCCO2)C1c1cccc(Cl)c1)c1ccco1 (centres undefined) | inconclusive: 20 µM [activator, partial curve, poor fit] | 
CCO[C@@H]1OC(C(=O)NCc2ccccc2)=C[C@H](c2ccc(C(F)(F)F)cc2)[C@H]1CCCO | inconclusive: 25.1 µM [activator, partial curve] | 

SMILES | Potency | growth rescue (activation)
C[C@@H]1CN([C@@H](C)CO)C(=O)CCCn2nncc2CO[C@@H]1CN(C)S(=O)(=O)c1ccc(-c2ccccc2)cc1 | inconclusive: 44.7 µM [activator, single point] | 
COc1ccc(-c2nc(CCNC(=O)c3ccccc3)cs2)cc1OC |  | inactive: 15.3%
O=S1(=O)N=C(N2CCN(Cc3ccc4c(c3)OCO4)CC2)c2ccccc21 |  | inactive: -14.5%
Cc1sc2ncnc(-n3cnc4ccccc43)c2c1C |  | inactive: 10.6%
Cc1cc(C)n2nc(NCc3cccc(Br)c3)nc2n1 |  | inactive: -4.55%
CCOC(=O)c1cnc(-n2nc(C)cc2C)nc1NC |  | inactive: 9.7%
C/C(C=Nn1c(-c2ccc(F)cc2)n[nH]c1=S)=C/c1ccco1 | inconclusive: 7.08 µM [activator, partial curve, poor fit] | 
Cc1nn(-c2nc3ccccc3s2)c(C)c1Oc1ccccc1O | inconclusive: 28.2 µM [activator, partial curve, poor fit] | 
Cc1cc(C)cc(CC(Cc2nc3ccccc3[nH]2)c2nc3ccccc3[nH]2)c1 (centres undefined) | inconclusive: 35.5 µM [activator, single point] | 
Cc1ccc(OCCN(C)C(=O)C2CCC(=O)N(CC3CCCCC3)C2)cc1 (centres undefined) | inconclusive: 11.2 µM [activator, partial curve] | 
O=C(COC(=O)c1cc(-c2ccccc2)nc2ccccc12)NC1CC1 | inconclusive: 28.2 µM [activator, partial curve] | 
CCC(C)c1ccccc1OCC(=O)Nc1ccc(S(=O)(=O)Nc2cc(C)on2)cc1 (centres undefined) | inconclusive: 31.6 µM [activator, single point] | 
Cc1cc(Cl)ccc1OC(C)C(=O)Nc1ccc(C(=O)Nc2ccccc2C(=O)O)cc1 (centres undefined) | inconclusive: 25.1 µM [activator, single point] | 
CCCc1nc(N2CCCC2)c(C#N)c2c1CCCC2 |  | inactive: 9.31%
O=C(c1ccc2c(c1)N(Cc1c(F)cccc1Cl)C(=O)c1ccccc1S2)N1CCCC1 | inconclusive: 22.4 µM [activator, single point] | 
CCc1ccc(NC(=O)c2ccc(Cn3nc(N4CCN(c5ccccc5)CC4)ccc3=O)o2)cc1 | inconclusive: 39.8 µM [activator, single point] | 
Cc1ccc2cc(CN(CCCN3CCOCC3)C(c3nnnn3Cc3ccco3)C(C)C)c(=O)[nH]c2c1C (centres undefined) | inconclusive: 15.8 µM [activator, partial curve, poor fit] | 
CCOP(=O)(OCC)c1nc(-c2ccc(Cl)cc2Cl)oc1N1CCCCC1 | inconclusive: 31.6 µM [activator, single point] | 
Cc1ccc2c(c1)N(S(=O)(=O)c1ccc(CN3C(=O)c4cccnc4C3=O)s1)CCO2 |  | inactive: 17.8%
COc1ccc(CNC(=O)c2cc3cccc4c3n2CC(C)S4)cc1OC (centres undefined) | inconclusive: 50.1 µM [activator, single point] | 
